# Results published in publication PMC12040169 (PLOS Biology, 2025).
# Some of the results follow.
# System: T1, C. trachomatis L2/434/Bu expressing GFP (CTL2-GFP)
# T1 construct: L2/434/Bu GFP intracellular growth in HeLa cells
# Design: species or system HeLa; C. trachomatis total inclusion area by high-content imaging, normalised to DMSO
# Conditions: total inclusion area; 28.5 h, 10 µM; inhibitor
# How it was run: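 Imaging read-out: GFP inclusions and Hoechst nuclei captured by high-content imaging after fixation. Inclusion area/number = chlamydial growth; nuclei count = host cell viability. MIC calculated per earlier method.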
row,Compound,% of control remaining
1,CC1(C)CC(NC(=O)CN2CCCCC2)CC(C)(C)N1 [CBK261956],102.107
2,CCCN1CCC(N(C)CCN(CC)CC)CC1 [CBK261935],96.4927
3,COc1ccc([C@@]23CC[C@@H](NC(=O)Nc4ccc(Cl)cc4Cl)C[C@@H]2CN(C)C3)cc1OC [CBK085798T],75.8301
4,CCC(CC)NS(=O)(=O)c1cccc(C(=O)O)c1 [CBK287225],101.122
5,O=C(CN1C(=O)/C(=C/c2ccccc2)SC1=S)Nc1cccc(C(=O)O)c1 [CBK262171],89.8164
6,NC(=O)C1(Cc2ccccc2-c2ccccc2)CCN(C(=O)Cc2ccccc2)CC1 [CBK285909],116.256
7,COC(=O)c1cc(C#N)c(=O)n(CC(=O)N(C)Cc2ccsc2)c1 [CBK297788],104.588
8,Cc1cc(CNC(=O)/C=C/c2ccc(C(C)C)cc2)no1 [CBK149614],75.6566
9,CC(=O)NC(c1ccccn1)C1CCCN(C(=O)C(C)C)C1 (stereo not drawn) [CBK285030],89.5644
10,CC(C)(C)c1cc(C(=O)NCC(=O)NCC(=O)O)cc(C(C)(C)C)c1 [CBK262200],89.9714
11,OC/C=C/c1cnc2ccccc2c1 [CBK001749],95.4622
12,O=C(O)CCCOc1nc(C2CC2)cc(C(F)(F)F)n1 [CBK286886],91.8467
13,Nc1ncnc2c1nc1n2[C@H]2C[C@@H](O)[C@@H](C1)O2 [CBK201254],96.5455
14,CC(O)CNCc1ccccc1OCc1ccccc1F (stereo not drawn) [CBK270278C],87.0165
15,COCCNc1cc(-c2ccccc2N(C)C)ncn1 [CBK090790],110.806
16,COc1ccc(C2CC(=O)c3c(C)n[nH]c3C2)cc1 (stereo not drawn) [CBK287911],74.3289
17,O=C(NCC1(O)CCSCC1)c1cc2ccccc2[nH]1 [CBK305199],42.6714
18,Cc1ccc2c(Cl)c(-c3nnc(-c4ccc(Cl)cc4)o3)sc2c1 [CBK263682],109.03
19,CCc1ccc(-c2ccc(C(=O)OC)cn2)cc1 [CBK149232],132.108
20,COc1cc(CN2CCOC3(CCN(C(=O)OCc4ccccc4)CC3)C2)cc(OC)c1OC [CBK161104T],91.2396
21,O=C(Cn1nc2n(c1=O)CCCC2)NCc1ccccc1Cl [CBK304647],83.8668
22,CCOC(=O)c1cccc(NS(=O)(=O)c2cc(F)c(Br)cc2F)c1 [CBK034333],92.5296
23,O=C(C1CC1)N1C[C@@H](c2ccsc2)[C@@H]2CN(C3CCCC3)CC[C@@H]21 [CBK283382],82.3298
24,COC(=O)c1c(C)[nH]c(C(=O)CSc2ncnc3sc(C)c(-c4ccccc4)c23)c1C [CBK266004],84.142
25,CC1(C)CC(=O)C2=C(C1)Nc1[nH][nH]c(=O)c1C2c1ccccn1 (stereo not drawn) [CBK288463],99.8387
26,O=C(Cc1ccccc1)N(Cc1ccco1)C1CCN(c2ccc3c(c2)OCCO3)CC1 [CBK286529],84.5909

row,Compound,% of control remaining
1,CC(C)NC(=O)NC1CCCc2nc(N3CCC(CO)CC3)ncc21 (stereo not drawn) [CBK307002],103.838
2,O=C(Cn1ccc(=O)[nH]c1=O)NCc1ccc(OCC(F)(F)F)cc1 [CBK305041],49.6367
3,Cc1c(C#N)sc(-c2nc[nH]n2)c1C [CBK005952],73.4006
4,Cc1n[nH]c(C)c1CCC(=O)N/N=C\c1cccc(Oc2ccccc2)c1 [CBK263384],88.9308
5,CCC(=O)NCCc1cc2ccc(C)cc2[nH]c1=O [CBK287434],124.803
6,COCOc1ccc(-c2nccnc2OCCN2C(=O)c3ccccc3C2=O)cc1 [CBK106913],78.8397
7,CC(=O)c1ccc(NC(=O)[C@@]2(CC(=O)O)CC(c3ccc(F)cc3)=NO2)cc1 [CBK286663],60.7431
8,O=C(OCc1nnsc1Cl)c1ccc(C(=O)c2ccccc2)cc1 [CBK297897],109.706
9,CCCNC(=O)c1cc(C2CCCN(Cc3ccccc3)C2)no1 (stereo not drawn) [CBK283388],102.091
10,O=C(O)c1ccc(CNCc2ccc(-c3ccc(F)cc3)o2)cc1 [CBK269622C],84.0152
11,Cc1ccc2[nH]c3c(c2c1)CCOC31CCN(Cc2ccccc2-c2ccccc2)CC1 [CBK039915],29.0118
12,COc1ccc(Br)cc1S(=O)(=O)Nc1nc(C)c(C(=O)O)s1 [CBK045558],62.2292
13,Cc1ccccc1-c1ccccc1CC1(C(=O)N(C)C)CCN(C(=O)CC(C)C)CC1 [CBK285714],107.916
14,Cc1ccc(S(=O)(=O)N(CC(=O)O)c2cccc(Cl)c2)cc1 [CBK262387],100.102
15,Clc1ccc(-c2noc(-c3ccco3)n2)cc1 [CBK026405],86.0819
16,Cc1ccc(C(=O)C2=C(O)C(=O)N(CCCn3ccnc3)C2c2cccc([N+](=O)[O-])c2)cc1 (stereo not drawn) [CBK263319],55.3403
17,CC(=O)N(C)c1ncc(Br)cc1C(=O)NCc1nc2ccccc2[nH]1 [CBK076522],109.211
18,CC1(CNC(=O)C2CC(=O)N(C3CCCCC3)C2)COC1 (stereo not drawn) [CBK281754],83.5631
19,COc1ccc(OC)c(NC(=O)CSc2nnc(-c3ccncc3)n2C)c1 [CBK266623],120.162
20,CN(C)CCCO/N=C1\CC2(CCCC2)c2ccccc21 [CBK013331],57.6164
21,Fc1ccc(Oc2nccnc2N2CCN(CC3CC3)CC2)cc1 [CBK083033T],90.4101
22,O=C(O)c1ccc(/C=N/N2CCN(Cc3ccc(Cl)cc3)CC2)cc1 [CBK263561],80.6122
23,COc1ccc(S(=O)(=O)Nc2cccc(C(=O)O)c2)cc1C(=O)O [CBK264069],101.024
24,CC(C)C(C(=O)Nc1ccc(S(=O)(=O)Nc2nccs2)cc1)N1C(=O)c2ccccc2C1=O (stereo not drawn) [CBK265707],85.3665
25,CCOC(=O)Nc1ccc(S(=O)(=O)Nn2cnnc2)cc1 [CBK262138],98.2472
